Measurements published in publication PMC10933337, “RhoGDI phosphorylation by PKC promotes its interaction with death receptor p75^NTR to gate axon growth and neuron survival” (EMBO Reports, 2024).
These are yes or no findings as the source states them, for the method shown. Binding seen in cells or lysates may run through a third protein. Some results given as binding are weak or reduced against the parent protein; the word gives no strength. For some of these results: Tags and fused reporters may be left off the sequences shown.

Amino acid sequences for entries named in this document (tags omitted). A change or cut given only in a name is not applied to a line headed by its entry. Chains listed by the source or under a name are the forms on record and can include a tag or linker. Residues count along the entry.
mouse p75^NTR wild type, transfected in NIH3T3 cells (Q9Z0W1, residues 32-427): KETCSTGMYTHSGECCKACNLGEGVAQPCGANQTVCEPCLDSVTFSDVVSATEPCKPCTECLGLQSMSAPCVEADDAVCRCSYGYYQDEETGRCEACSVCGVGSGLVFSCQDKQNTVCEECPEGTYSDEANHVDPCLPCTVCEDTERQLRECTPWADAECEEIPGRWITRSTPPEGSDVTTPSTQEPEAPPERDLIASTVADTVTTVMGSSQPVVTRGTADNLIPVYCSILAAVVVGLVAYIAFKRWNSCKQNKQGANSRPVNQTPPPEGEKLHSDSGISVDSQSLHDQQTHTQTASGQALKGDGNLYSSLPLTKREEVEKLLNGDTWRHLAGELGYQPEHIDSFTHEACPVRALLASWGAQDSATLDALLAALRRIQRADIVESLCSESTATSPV
mouse p75^NTR K303A, transfected in NIH3T3 cells (Q9Z0W1, form named): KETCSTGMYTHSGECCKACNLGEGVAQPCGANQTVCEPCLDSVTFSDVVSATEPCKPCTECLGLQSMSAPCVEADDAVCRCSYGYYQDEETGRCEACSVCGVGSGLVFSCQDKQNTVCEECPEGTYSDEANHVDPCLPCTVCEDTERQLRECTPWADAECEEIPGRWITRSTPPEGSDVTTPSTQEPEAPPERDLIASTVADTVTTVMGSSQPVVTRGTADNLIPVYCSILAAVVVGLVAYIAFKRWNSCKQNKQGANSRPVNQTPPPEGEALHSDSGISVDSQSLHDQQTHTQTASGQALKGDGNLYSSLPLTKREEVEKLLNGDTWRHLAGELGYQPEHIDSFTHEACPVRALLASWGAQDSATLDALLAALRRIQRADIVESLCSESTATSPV
mouse p75^NTR K282A/K285A double mutant (Q9Z0W1, form named): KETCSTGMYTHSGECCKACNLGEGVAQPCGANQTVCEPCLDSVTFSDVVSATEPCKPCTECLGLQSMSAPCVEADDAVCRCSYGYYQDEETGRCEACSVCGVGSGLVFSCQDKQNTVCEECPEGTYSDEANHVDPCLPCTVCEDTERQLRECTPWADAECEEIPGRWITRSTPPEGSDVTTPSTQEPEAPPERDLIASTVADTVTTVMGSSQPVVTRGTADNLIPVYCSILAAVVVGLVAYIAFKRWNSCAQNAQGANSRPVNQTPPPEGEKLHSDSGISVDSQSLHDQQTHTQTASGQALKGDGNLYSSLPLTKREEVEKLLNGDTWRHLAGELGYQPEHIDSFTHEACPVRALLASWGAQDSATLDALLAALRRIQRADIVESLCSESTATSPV
mouse p75^NTR V246N (cleavage-resistant, γ-secretase mutant variant) (Q9Z0W1, form named): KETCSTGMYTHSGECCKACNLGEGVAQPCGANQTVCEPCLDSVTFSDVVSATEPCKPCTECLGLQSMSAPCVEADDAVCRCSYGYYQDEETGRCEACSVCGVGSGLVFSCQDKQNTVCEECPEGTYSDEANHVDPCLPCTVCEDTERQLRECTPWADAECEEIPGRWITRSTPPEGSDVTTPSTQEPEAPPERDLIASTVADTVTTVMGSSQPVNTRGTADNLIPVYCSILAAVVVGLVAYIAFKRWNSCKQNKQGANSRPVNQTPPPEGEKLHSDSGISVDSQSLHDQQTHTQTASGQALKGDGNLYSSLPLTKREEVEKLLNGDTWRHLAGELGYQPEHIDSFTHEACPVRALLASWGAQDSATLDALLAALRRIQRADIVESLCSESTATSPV
mouse p75^NTR K303D (Q9Z0W1, form named): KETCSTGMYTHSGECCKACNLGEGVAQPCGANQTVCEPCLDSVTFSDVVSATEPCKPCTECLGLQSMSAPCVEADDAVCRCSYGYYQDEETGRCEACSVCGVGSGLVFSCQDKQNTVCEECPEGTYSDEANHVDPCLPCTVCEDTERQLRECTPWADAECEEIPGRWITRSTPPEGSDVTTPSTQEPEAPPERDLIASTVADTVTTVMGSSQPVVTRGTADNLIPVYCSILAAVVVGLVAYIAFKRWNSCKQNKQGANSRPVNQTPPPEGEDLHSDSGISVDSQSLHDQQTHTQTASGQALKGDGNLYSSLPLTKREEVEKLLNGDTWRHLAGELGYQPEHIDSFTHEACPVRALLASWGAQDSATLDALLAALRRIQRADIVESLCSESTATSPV
UniProt P58801: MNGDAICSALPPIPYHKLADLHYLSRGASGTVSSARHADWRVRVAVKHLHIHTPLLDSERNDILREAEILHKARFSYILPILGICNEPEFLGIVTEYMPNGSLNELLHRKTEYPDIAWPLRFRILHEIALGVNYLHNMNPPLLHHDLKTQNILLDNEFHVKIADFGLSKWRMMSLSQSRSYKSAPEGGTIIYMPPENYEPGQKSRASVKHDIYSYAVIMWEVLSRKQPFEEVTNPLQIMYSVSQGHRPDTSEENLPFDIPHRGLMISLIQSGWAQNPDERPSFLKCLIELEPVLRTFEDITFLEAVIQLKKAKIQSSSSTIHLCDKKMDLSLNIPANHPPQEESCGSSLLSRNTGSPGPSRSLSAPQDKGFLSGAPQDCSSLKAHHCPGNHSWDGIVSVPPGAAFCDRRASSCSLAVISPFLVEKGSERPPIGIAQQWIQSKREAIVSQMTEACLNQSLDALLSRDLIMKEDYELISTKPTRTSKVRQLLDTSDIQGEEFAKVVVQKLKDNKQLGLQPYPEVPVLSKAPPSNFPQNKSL

Tests used:
[1] = target: p75 neurotrophin receptor (p75^NTR), endogenous in cerebellar granule neurons (mouse (endogenous in P7 CGNs)) (UniProt Q9Z0W1); test: co-IP; as a1, CGNs treated with PMA, alone or with NGF, for 30 min; blot for RIP2
[2] = target: p75 neurotrophin receptor (p75^NTR), endogenous in cerebellar granule neurons (mouse (endogenous in P7 CGNs)) (UniProt Q9Z0W1); test: co-IP; p75NTR immunoprecipitated from lysates of cultured P7 wild-type mouse CGNs, blots for endogenous RhoGDI or RIP2; cells untreated or treated with PMA, MAG or NGF
[3] = target: mouse p75^NTR wild type, transfected in NIH3T3 cells (mouse) (UniProt Q9Z0W1); test: co-IP; p75NTR immunoprecipitated from NIH3T3 cells overexpressing p75NTR and RIP2, treated with scrambled or RhoGDI siRNA, with or without PMA; blot for RIP2
[4] = target: mouse p75^NTR K303A, transfected in NIH3T3 cells (mouse) (UniProt Q9Z0W1); test: co-IP; competition: p75NTR immunoprecipitated from NIH3T3 cells transfected with p75NTR (WT or K303A), Myc-RIP2 and RhoGDI WT or S34D in increasing doses; blots for RhoGDI, RIP2 and p75NTR
[5] = target: mouse p75^NTR wild type, transfected in NIH3T3 cells (mouse) (UniProt Q9Z0W1); test: as above
[6] = target: p75 neurotrophin receptor (p75^NTR), endogenous in cerebellar granule neurons (mouse (endogenous in P7 CGNs)) (UniProt Q9Z0W1); test: co-IP; as a1, CGNs treated with the PKC inhibitor Gö6976 (1 µM), alone or with MAG
[7] = target: GFP-tagged p75^NTR wild type, lentiviral, in p75^NTR knock-out CGNs (mouse) (UniProt Q9Z0W1); test: proximity ligation; in situ PLA with antibodies to RhoGDI and p75NTR (ANT-011) in fixed p75NTR knock-out CGNs transduced with lentivirus for p75NTR WT or K303A
[8] = target: HA-tagged p75^NTR wild type, electroporated into p75^NTR knock-out CGNs (mouse) (UniProt Q9Z0W1); test: co-IP; HA-tagged p75NTR immunoprecipitated from p75NTR knock-out P7 CGNs electroporated with p75NTR WT or K303A; blot for endogenous RhoGDI; with or without PMA
[9] = target: p75 neurotrophin receptor (p75^NTR), endogenous in cerebellar granule neurons (mouse (endogenous in P7 CGNs)) (UniProt Q9Z0W1); test: co-IP; p75NTR immunoprecipitated from lysates of cultured P7 wild-type mouse CGNs, blots for endogenous RhoGDI or RIP2; cells untreated or treated with PMA, MAG or NGF; remark: listed apart in the source
[10] = target: p75 neurotrophin receptor (p75^NTR), endogenous in cerebellar granule neurons (mouse (endogenous in P7 CGNs)) (UniProt Q9Z0W1); test: co-IP; p75NTR immunoprecipitated from lysates of P7 wild-type CGNs; control or phospho-Ser34 RhoGDI peptide added to the lysate at 30 μM for 30 min at 4 °C before the antibody; blot for RhoGDI
[11] = target: mouse p75^NTR K282A/K285A double mutant (mouse) (UniProt Q9Z0W1); test: co-IP; p75NTR (or its JXT-GST fusion) immunoprecipitated from lysates of NIH3T3 cells co-transfected with p75NTR and Flag-RhoGDI constructs, blot for Flag; baseline or after PMA, Gö6976 or NGF
[12] = target: mouse p75^NTR K303A, transfected in NIH3T3 cells (mouse) (UniProt Q9Z0W1); test: as above
[13] = target: mouse p75^NTR wild type, transfected in NIH3T3 cells (mouse) (UniProt Q9Z0W1); test: as above
[14] = target: mouse p75^NTR wild type, transfected in NIH3T3 cells (mouse) (UniProt Q9Z0W1); test: co-IP; as a3, the arm of Figure 3E treated with vehicle (no PMA)
[15] = target: mouse p75^NTR V246N (cleavage-resistant, γ-secretase mutant variant) (mouse) (UniProt Q9Z0W1); test: co-IP; p75NTR (or its JXT-GST fusion) immunoprecipitated from lysates of NIH3T3 cells co-transfected with p75NTR and Flag-RhoGDI constructs, blot for Flag; baseline or after PMA, Gö6976 or NGF
[16] = target: mouse p75^NTR K303D (mouse) (UniProt Q9Z0W1); test: as above
[17] = target: p75 neurotrophin receptor (p75^NTR), endogenous in cerebellar granule neurons (mouse (endogenous in P7 CGNs)) (UniProt Q9Z0W1); test: co-IP; as a7; the synthetic phospho-Ser34 peptide (30 μM) as competitor against p75NTR in the lysate; only the binder purified
[18] = target: p75^NTR K303A and p75^NTR K346A/E349A (KEA) expressed together in HEK293 cells (receptor dimer) (mouse) (UniProt Q9Z0W1); test: co-IP; p75NTR immunoprecipitated from HEK293 cells transfected with Flag-RhoGDI and HA-tagged or untagged p75NTR WT, K303A or K346A/E349A, alone or in combination; blot for Flag

## RIP2, endogenous in cerebellar granule neurons (from UniProt P58801 1-539)
[1]
  binding: no binding (condition: CGNs treated with PMA)
[2]
  binding: binds

## mouse Myc-RIP2 (from UniProt P58801 1-539)
[3]
  binding: binds
[4]
  binding: binds
[5]
  binding: binds

B1: Rho GDP-dissociation inhibitor (RhoGDI), endogenous in cerebellar granule neurons (protein, UniProt Q99PT1 1-204)
chain: MAEQEPTAEQLAQIAAENEEDEHSVNYKPPAQKSIQEIQELDKDDESLRKYKEALLGRVAVSADPNVPNVIVTRLTLVCSTAPGPLELDLTGDLESFKKQSFVLKEGVEYRIKISFRVNREIVSGMKYIQHTYRKGVKIDKTDYMVGSYGPRAEEYEFLTPMEEAPKGMLARGSYNIKSRFTDDDKTDHLSWEWNLTIKKEWKD
[6]
  binding: no binding (condition: CGNs treated with Gö6976 (1 µM))
[7]
  binding: binds
[8]
  binding: binds
[9]
  binding: binds
[10]
  binding: binds

B2: Flag-tagged RhoGDI lacking the N-terminal domain (RhoGDI-∆59) (domain or fragment, UniProt Q99PT1 60-204)
chain: AVSADPNVPNVIVTRLTLVCSTAPGPLELDLTGDLESFKKQSFVLKEGVEYRIKISFRVNREIVSGMKYIQHTYRKGVKIDKTDYMVGSYGPRAEEYEFLTPMEEAPKGMLARGSYNIKSRFTDDDKTDHLSWEWNLTIKKEWKD
[11]
  binding: binds
[12]
  binding: binds
[13]
  binding: binds

B3: RhoGDI-59: the 59 N-terminal residues of RhoGDI fused to GST, Flag-tagged (domain or fragment, UniProt Q99PT1 1-59)
chain: MAEQEPTAEQLAQIAAENEEDEHSVNYKPPAQKSIQEIQELDKDDESLRKYKEALLGRV
[14]
  binding: no binding (condition: without PMA (vehicle))
[11]
  binding: binds
[12]
  binding: no binding
[13]
  binding: binds

B4: RhoGDI-59 S34D (GST fusion, Flag-tagged) (domain or fragment, UniProt Q99PT1 1-59)
chain: MAEQEPTAEQLAQIAAENEEDEHSVNYKPPAQKDIQEIQELDKDDESLRKYKEALLGRV
[13]
  binding: binds

B5: mouse Flag-RhoGDI wild type, transfected in NIH3T3 cells (protein, UniProt Q99PT1 1-204)
chain: MAEQEPTAEQLAQIAAENEEDEHSVNYKPPAQKSIQEIQELDKDDESLRKYKEALLGRVAVSADPNVPNVIVTRLTLVCSTAPGPLELDLTGDLESFKKQSFVLKEGVEYRIKISFRVNREIVSGMKYIQHTYRKGVKIDKTDYMVGSYGPRAEEYEFLTPMEEAPKGMLARGSYNIKSRFTDDDKTDHLSWEWNLTIKKEWKD
[5]
  binding: binds
[11]
  binding: binds
[15]
  binding: binds
[13]
  binding: binds

B6: mouse Flag-RhoGDI S34K (protein, UniProt Q99PT1 1-204)
chain: MAEQEPTAEQLAQIAAENEEDEHSVNYKPPAQKKIQEIQELDKDDESLRKYKEALLGRVAVSADPNVPNVIVTRLTLVCSTAPGPLELDLTGDLESFKKQSFVLKEGVEYRIKISFRVNREIVSGMKYIQHTYRKGVKIDKTDYMVGSYGPRAEEYEFLTPMEEAPKGMLARGSYNIKSRFTDDDKTDHLSWEWNLTIKKEWKD
[16]
  binding: binds

B7: phospho-Ser^34 RhoGDI peptide (Cys-PAQKpSIQEI) (peptide)
peptide: CPAQKSIQEI
modifications: phosphoserine (pS; Ser34 of RhoGDI)
[17]
  binding: binds

B8: Flag-RhoGDI, transfected in HEK293 cells (protein, UniProt Q99PT1 1-204)
chain: MAEQEPTAEQLAQIAAENEEDEHSVNYKPPAQKSIQEIQELDKDDESLRKYKEALLGRVAVSADPNVPNVIVTRLTLVCSTAPGPLELDLTGDLESFKKQSFVLKEGVEYRIKISFRVNREIVSGMKYIQHTYRKGVKIDKTDYMVGSYGPRAEEYEFLTPMEEAPKGMLARGSYNIKSRFTDDDKTDHLSWEWNLTIKKEWKD
[18]
  binding: binds

B9: mouse Flag-RhoGDI S34D (protein, UniProt Q99PT1 1-204)
chain: MAEQEPTAEQLAQIAAENEEDEHSVNYKPPAQKDIQEIQELDKDDESLRKYKEALLGRVAVSADPNVPNVIVTRLTLVCSTAPGPLELDLTGDLESFKKQSFVLKEGVEYRIKISFRVNREIVSGMKYIQHTYRKGVKIDKTDYMVGSYGPRAEEYEFLTPMEEAPKGMLARGSYNIKSRFTDDDKTDHLSWEWNLTIKKEWKD
[5]
  binding: binds
[13]
  binding: binds

B10: mouse Flag-RhoGDI S34A (protein, UniProt Q99PT1 1-204)
chain: MAEQEPTAEQLAQIAAENEEDEHSVNYKPPAQKAIQEIQELDKDDESLRKYKEALLGRVAVSADPNVPNVIVTRLTLVCSTAPGPLELDLTGDLESFKKQSFVLKEGVEYRIKISFRVNREIVSGMKYIQHTYRKGVKIDKTDYMVGSYGPRAEEYEFLTPMEEAPKGMLARGSYNIKSRFTDDDKTDHLSWEWNLTIKKEWKD
[13]
  binding: binds weakly

B11: mouse Flag-RhoGDI S96D (protein, UniProt Q99PT1 1-204)
chain: MAEQEPTAEQLAQIAAENEEDEHSVNYKPPAQKSIQEIQELDKDDESLRKYKEALLGRVAVSADPNVPNVIVTRLTLVCSTAPGPLELDLTGDLEDFKKQSFVLKEGVEYRIKISFRVNREIVSGMKYIQHTYRKGVKIDKTDYMVGSYGPRAEEYEFLTPMEEAPKGMLARGSYNIKSRFTDDDKTDHLSWEWNLTIKKEWKD
[13]
  binding: binds

B12: mouse Flag-RhoGDI S96A (protein, UniProt Q99PT1 1-204)
chain: MAEQEPTAEQLAQIAAENEEDEHSVNYKPPAQKSIQEIQELDKDDESLRKYKEALLGRVAVSADPNVPNVIVTRLTLVCSTAPGPLELDLTGDLEAFKKQSFVLKEGVEYRIKISFRVNREIVSGMKYIQHTYRKGVKIDKTDYMVGSYGPRAEEYEFLTPMEEAPKGMLARGSYNIKSRFTDDDKTDHLSWEWNLTIKKEWKD
[13]
  binding: binds

B13: RhoGDI-59 S34A (GST fusion, Flag-tagged) (domain or fragment, UniProt Q99PT1 1-59)
chain: MAEQEPTAEQLAQIAAENEEDEHSVNYKPPAQKAIQEIQELDKDDESLRKYKEALLGRV
[13]
  binding: no binding
